Laboratory results taken from a collection of fitness landscapes (doi:10.1016/j.celrep.2020.107928).
In all, about 81,000 sequences were measured (“one-hybrid fitness for binding NBS DNA”: median about -0.1, highest 2% from about 0.36 on). Some of the results follow.

B1: Caulobacter ParB omega fusion; a variant is named by its letters at X, in order, B8GW30 (parent)
chain: MESVVVGEPGMSEGRRGLGRGLSALLGEVDAAPAQAPGEQLGGSREAPIEILQRNPDQPRRTFREEDLEDLSNSIREKGVLQPILVRPSPDTAGEYQIVAGERAWRAAQRAGLKTVPIMVRELDDLAVLEIGIIENVQRADLNVLEEALSYKVLMEKFERTQENIAQTIGKSXSHVANXMRLLXLPDEVQSYLVSGELTAXHARAIAAAADPVALAKQIIEGGLSVRETEALARKAPNLSAGKSKGGRPPRVKDTDTQALESDLSSVLGLDVSIDHRGSTGTLTITYATLEQLDDLCNRLTRGI

Variants of: B1
Assay: one-hybrid fitness for binding NBS DNA (the Noc-binding site; scaled: cognate 1, non-cognate 0); higher = stronger binding
Details: with NBS DNA site
Outline: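 Selection: bacterial one-hybrid in E. coli USO, HIS3 reporter with the site 19 bp from the promoter, 48 hours at 37°C on M9-minus-histidine plus 0.1 mM IPTG and 5 mM 3-AT. Libraries were Caulobacter ParB with four randomised specificity codons, sequenced on Illumina before and after selection. Fitness is the rescaled log change in variant-to-wild-type read ratio, anchored to the cognate and non-cognate sites.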

one-hybrid fitness for binding NBS DNA, ≤ 0.2:
PHRS
PKTH
LEKT
FNAV
PCLS
SRAH
NDRT
KNTR
AAIM
DVTT
QWAF
LYRE
YSFC
DTEG
DITL
TWKV
TPSL
PFVG
HHGY
HAKT
RTCP
FATW
ALFC
CYAT
AMAN
HYTA
TWEE
RYHH
VTTR
QDPS
NSKT
PGLS
DQNL
SLKQ
ACLY
RWAQ
TPFD
STNQ
CYPR
HPPE
TFPS
ASAL
ESIP
RVTC
PAES
RSLE
GNDK
MNHL
PTPP
ARWL
SFFV
ASHL
DCNS
SHIT
TSVI
QCHM
SIVR
SGNT
CPVS
VHVF
HVKN
PALH
DFMA
FNFR
WAHR
LEQR
PGQR
IQTR
YEYG
YTSR
HVFI
PSEM
CKSA
LDVF
HLPR
SSML
GMFN
TLEL
ELRT
TCFA
MDSF
AQET
KTDC
PSAW
QLGD
CKTS
QFSF
AYCL
ELGN
QGPK
AELD
RFFF
PMAK
AGQI
QNNE
ELEV
NEKG
KSWC
PITP
FQCR
VPEQ
HCTQ
PEVV
ETQY
RWMA
LFCV
FLIY
VEKK
QVNM
RAQG
MAPF
EVKC
WVVS
PIRT
DFNY
NIVS
RLEQ
VSEM
TWPS
NPFS
RDYC
NRLI
MIYY
MYTT
VPQT
KGTT
CNLW
CNKA
VKKC
DSSS
AINL
FESV
VPHT
YMHG
IAQC
QLEL
PPCM
RSPQ
THNM
MFPR
TWTN
PEKC
PDQD
CRID
AIWG
NSMD
PDRA
SYIR
LTMS
MKWM

one-hybrid fitness for binding NBS DNA, 0.282:
QCGH

one-hybrid fitness for binding NBS DNA, 0.339:
QLRQ

one-hybrid fitness for binding NBS DNA, 0.635:
RARR
